Article PMC4336329 (PLoS ONE, 2015)
Screen size: about 310,000 compounds; about 14,000 (4.5%) showed an effect of 50% or more. The effect is printed as a negative number. The list shows a part of the results.

target: human ether-à-go-go-related gene (hERG) potassium channel (human, UniProt Q12809); test: primary screen, population patch clamp on CHO cells stably expressing hERG
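Note: peak tail current of the secondary pulse compared with the same well before compound.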

Sequence of human ether-à-go-go-related gene (hERG) potassium channel (Q12809 whole entry, looked up): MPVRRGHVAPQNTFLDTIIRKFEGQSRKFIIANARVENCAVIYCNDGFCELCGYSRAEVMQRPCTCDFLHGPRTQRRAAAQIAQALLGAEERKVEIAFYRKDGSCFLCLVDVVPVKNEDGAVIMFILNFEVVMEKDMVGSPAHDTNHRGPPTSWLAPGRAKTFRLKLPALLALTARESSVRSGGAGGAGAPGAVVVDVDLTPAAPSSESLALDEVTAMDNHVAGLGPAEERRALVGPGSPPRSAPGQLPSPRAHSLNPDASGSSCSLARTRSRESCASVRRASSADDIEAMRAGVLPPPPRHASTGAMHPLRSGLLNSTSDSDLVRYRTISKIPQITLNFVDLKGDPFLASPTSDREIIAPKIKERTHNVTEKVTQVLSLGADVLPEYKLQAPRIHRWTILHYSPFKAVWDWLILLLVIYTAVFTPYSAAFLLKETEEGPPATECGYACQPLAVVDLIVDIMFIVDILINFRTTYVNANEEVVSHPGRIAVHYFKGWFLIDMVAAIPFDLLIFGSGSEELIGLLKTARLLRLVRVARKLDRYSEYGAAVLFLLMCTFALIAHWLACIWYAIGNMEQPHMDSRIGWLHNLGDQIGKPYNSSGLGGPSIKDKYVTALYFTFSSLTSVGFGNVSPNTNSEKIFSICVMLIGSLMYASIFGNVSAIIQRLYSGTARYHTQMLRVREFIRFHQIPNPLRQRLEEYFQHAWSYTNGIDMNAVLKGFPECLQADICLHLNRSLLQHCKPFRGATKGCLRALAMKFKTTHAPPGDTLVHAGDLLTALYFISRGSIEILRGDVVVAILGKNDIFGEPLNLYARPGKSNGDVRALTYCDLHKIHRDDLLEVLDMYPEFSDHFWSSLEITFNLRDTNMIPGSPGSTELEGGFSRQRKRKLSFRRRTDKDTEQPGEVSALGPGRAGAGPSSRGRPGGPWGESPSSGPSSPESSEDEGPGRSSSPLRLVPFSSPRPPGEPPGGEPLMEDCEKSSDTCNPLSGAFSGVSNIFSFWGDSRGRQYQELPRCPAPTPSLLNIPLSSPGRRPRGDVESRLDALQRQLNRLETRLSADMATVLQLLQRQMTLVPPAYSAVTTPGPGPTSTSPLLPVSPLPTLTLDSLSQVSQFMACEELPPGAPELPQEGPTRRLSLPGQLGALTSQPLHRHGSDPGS

Row | SMILES | hERG current change (%, negative = inhibition) at 10uM [%]
1 | CC(C)CNS(=O)(=O)c1ccc(CCC(=O)NCc2ccncc2)cc1 | 5.16
2 | C/C(=N/NC(=O)c1cccc(C)c1)c1c(O)cc(C)oc1=O | -4.3
3 | O=C(Cn1nnc2ccccc21)OCc1ccccc1 | 15.8
4 | COc1ccc(OC)c(C(=O)NC(CC(N)=O)c2ccc(NCC3CC3)c([N+](=O)[O-])c2)c1 (stereo not shown) | -42
5 | Cc1cccc(OCC(=O)Nc2ccccc2N2CCCC2)c1C | -25.6
6 | CC(=O)Nc1ccc2nc(NC(=O)COc3ccc([N+](=O)[O-])cc3)sc2c1 | 5.4
7 | COc1ccc(C(=O)COC(=O)c2ccc([N+](=O)[O-])s2)cc1OC | 1.16
8 | O=C(NCCN1CCCCC1)c1cc(COc2c(F)cccc2F)on1 | -37.9
9 | OC(CNc1ccccc1)COc1ccc(OCC(O)CNc2ccccc2)cc1 (stereo not shown) | -11.5
10 | Cc1[nH]c(C)c(C(=O)/C=C/c2ccc([N+](=O)[O-])cc2)c1C | 6.04
11 | CS(=O)(=O)Nc1cccc(C2=NN(S(C)(=O)=O)C(c3ccccc3)C2)c1 (stereo not shown) | -30.9
12 | Cc1ccc(NS(=O)(=O)c2cn(C)cn2)cc1 | 18.6
13 | Cc1cccc(C(=O)Nc2ncc(CN3CCOCC3)s2)c1 | 13.4
14 | CCN(CC)CCN(C(=O)c1ccc(C(=O)c2ccccc2)cc1)c1nc2c(OC)cccc2s1.Cl | -68
15 | Nc1nonc1C(=O)N/N=C/c1ccc(-c2cccc(C(=O)O)c2)o1 | 49.1
16 | COc1ccc(-c2ccc3nnc(SCC(N)=O)n3n2)cc1 | 25.5
17 | CCN(C(=O)C1CCN(c2nc(-c3ccc(OC)cc3)no2)CC1)c1ccccc1 | -24.7
18 | O=C(O)CN=CC1=C(O)CC(c2ccccc2)CC1=O (stereo not shown) | 22.4
19 | COc1cc(C(=O)N2CCC(NC(=O)C(Cc3ccc(C)cc3)NC(C)=O)CC2)cc(OC)c1OC (stereo not shown) | 12.1
20 | CC/C(=N\NC(=O)c1nnn(-c2nonc2N)c1-c1cccc(OC)c1)c1ccc(C)cc1 | 6.72
21 | O=C(CN1C(=O)CCS(=O)(=O)c2ccccc21)NCc1ccccc1 | -0.0573
22 | Cc1ccc(C(=O)NC(=S)N(C)C2CCCCC2)cc1Br | 21.9

Row | SMILES | hERG current change (%, negative = inhibition) at 10uM [%]
23 | O=C(NCCCNC(=O)c1ccccc1F)c1ccco1 | 16.1
24 | Nc1nccnc1C(=O)OCC(=O)NCCc1ccc(Cl)cc1 | -22
25 | CCOC(=O)[C@@H]1[C@H]2COc3ccc(Br)cc3[C@@H]2N2C(=O)N(c3cccc(F)c3)C(=O)[C@]12C | -4.89
26 | CCN(CC)CCn1c2c(c(SCC(=O)Nc3cccc4ccccc34)nc1=O)CCCC2 | -63.8
27 | Cc1c(-c2ccccc2)sc(Br)c1C(=O)N1CCOCC1 | -9.27
28 | O=C(COc1ccc(Cl)cc1Cl)Nc1ccccc1NS(=O)(=O)c1cccs1 | 13.1
29 | COC(=O)c1c(O)c2ccccc2[nH]c1=O | -6.52
30 | O=C(CN1C(=O)/C(=C/c2ccccc2F)Sc2ccccc21)NCC1CCCO1 (stereo not shown) | -10.5
31 | CCOc1ccc(N(Cc2cc3cc(C)ccc3[nH]c2=O)S(=O)(=O)c2ccccc2)cc1 | 11.2
32 | Cc1nc2sc(C(c3cccc(F)c3)N3CCN(C(=O)c4ccco4)CC3)c(O)n2n1 (stereo not shown) | -36
33 | O=C(COC(=O)CNC(=O)c1cccs1)Nc1ccc(C(F)(F)F)cc1[N+](=O)[O-] | -44
34 | COc1ccc(Cl)cc1S(=O)(=O)n1nnc2ccccc21 | 12.5
35 | Cn1c(=O)cc(OCC(=O)N2CCN(c3ccccc3F)CC2)c2ccccc21 | -17.5
36 | Cc1ccc(Cc2cnc(NC(=O)c3ccco3)s2)cc1 | 9.83
37 | CN(C)CCO/N=C(\c1ccc(Br)cc1)c1cccnc1.O=C(O)C(=O)O | -63.5
38 | O=C(Nc1ccccc1N1CCCC1)c1ccc([N+](=O)[O-])cc1Cl | -21.5
39 | Cc1csc(SCC(=O)NC(C)c2ccccc2)n1 (stereo not shown) | 1.33
40 | O=C1CCC(=O)N1c1cccc(-c2nc3ccccc3o2)c1 | 8.68
41 | CCOc1cc(C(=O)Nc2cc(C)on2)cc(OCC)c1OCC | 15.9
42 | CN(C)C(=O)COC(=O)c1ccccc1Sc1ccccc1C#N | 0.434
43 | CS(=O)(=O)N(CC(=O)NCCSCc1ccccc1)c1ccccc1Br | -4.22
44 | Cc1nn(Cc2ccccc2Cl)c2sc(C(=O)Nc3nccs3)cc12 | 3.32

Row | SMILES | hERG current change (%, negative = inhibition) at 10uM [%]
45 | O=C(NNS(=O)(=O)c1ccc(CCCl)cc1)C(O)(c1ccccc1)c1ccccc1 | -55.9
46 | Clc1ccc(Cn2c(/C=C/c3ccco3)nc3ccccc32)cc1 | 0.0278
47 | CC1(C)CC(NC(=O)c2ccccc2)CC(C)(C)N1 | 13.2
48 | CCCC(C)NNC(=O)c1cc2ccccc2[nH]1 (stereo not shown) | 7.95
49 | CCOc1ccc2nc(/N=C/c3c(C)[nH]n(-c4ccccc4)c3=O)sc2c1 | 17.9
50 | CCCCCNc1nc2sc3c(c2c(=O)n1-c1cccc(Cl)c1)CCN(C)C3 | -39.5
51 | CCN(CC)C(=O)Cn1ncc2c1-c1ccccc1OC2 | -1.35
52 | Cc1ccc(-n2c(SCC(=O)OC(C)C)nnc2-c2ccccn2)cc1 | -8.59
53 | COc1ccc(NC(=O)CSc2ncnc3c2cnn3Cc2ccccc2)cc1 | 17.1
54 | CC(=O)N/N=C(\C)CC(=O)Nc1ccc2c(c1)OCCO2 | 2.77
55 | Cc1ccsc1C(=O)N1CCN(C(=O)c2ccco2)CC1 | -10.4
56 | CCCn1c(/C=C/c2ccccc2)nc2ccccc21 | -28.4
57 | C=CCN1C(=O)C(CC(=O)NCC)SC1=Nc1ccccc1CC (stereo not shown) | 0.167
58 | Cc1ccc(SCc2c(C#N)c3ccccc3n2C)cc1 | 4.99
59 | O=C(CCCSc1nc2ccccc2[nH]1)Nc1nnc(-c2ccccc2)o1 | -14.1
60 | CCOC(=O)Nc1ccc2c(c1)N(C(=O)CCN1CCOCC1)c1ccccc1S2=O.Cl (stereo not shown) | -18.5
61 | CN1CCN(CCCCOc2ccccc2C=O)CC1.O=C(O)C(=O)O | 0.13
62 | COc1ccc(C(=O)NNC(=S)NC(=O)c2ccccc2)cc1 | 23.7
63 | COc1ccc(C(=O)NC(C)CCc2ccccc2)cc1 (stereo not shown) | -2.64
64 | Cc1ccc(C(=O)NCCNC(=O)COc2ccc(C)c(C)c2)cn1 | 4.82
65 | COc1ccc2cc(OC)c(C(=O)N3CCOCC3)cc2c1 | -8.24
66 | O=C(COC(=O)CN1C(=O)C2CCCCC2C1=O)Nc1ccc(S(=O)(=O)N2CCOCC2)cc1 (stereo not shown) | 29.9

Row | SMILES | hERG current change (%, negative = inhibition) at 10uM [%]
67 | CCCN1C(=O)C2(SC(NC(C)=O)=NN2C(C)=O)c2cc(C)cc(C)c21 (stereo not shown) | -8.54
68 | Cc1ccc(N2CC(C(=O)Nc3ccc4c(c3)OCCO4)CC2=O)cc1 (stereo not shown) | 16.2
69 | N#CC1=C(SCC(=O)NC2CC2)NC(=O)C(C#N)C12CCCCC2 (stereo not shown) | 9.32
70 | COc1ccc(CC(=O)NNC(=O)CCc2ccccc2)cc1OC | 14.8
71 | CCC(NS(=O)(=O)c1ccc(OC)cc1)C(=O)NCCc1ccccc1 (stereo not shown) | 11.3
72 | CCCc1cc(=O)[nH]c(SCC(=O)Nc2sc3c(c2C#N)CCC(C)C3)n1 (stereo not shown) | 10.6
73 | O=C(/C=C/c1ccccc1Cl)N(Cc1ccc(Cl)cc1)C1CCS(=O)(=O)C1 (stereo not shown) | 1.48
74 | CCOc1ccc(C(C(=O)NCC2CCCO2)N(C(=O)c2snc(C(N)=O)c2N)c2ccccc2F)cc1 (stereo not shown) | -2.95
75 | CCc1nnc(NC(=O)CSc2nc3[nH]c(=O)cc(O)c3s2)s1 | -0.838
76 | CC1CCC(NC(=O)c2nn(C)c3c2CSc2ccccc2-3)CC1 (stereo not shown) | 3.11
77 | O=C(CC12CC3CC(CC(C3)C1)C2)Nc1ccccc1N1CCOCC1 | 0.083
78 | Nc1cccc(NC(=O)CN2CCOCC2)c1 | 8.65
79 | COc1ccccc1OCCC(=O)OCC(=O)Nc1cc(S(=O)(=O)N(C)C)ccc1Cl | -6.26
80 | COC(=O)C1=CN(Cc2ccc(OC)c(OC)c2)C=C(C(=O)OC)C1c1cccc(OC)c1OC | -5.15
81 | COc1ccc(Cc2noc(CN(C)CC3CCN(Cc4ccccc4)CC3)n2)cc1OC | -22.9
82 | Cc1ccc(S(=O)(=O)CCC(=O)OCC(=O)Nc2cc(C)on2)cc1 | 16
83 | O=C(CSc1ccccn1)Nc1ccc(Cl)cn1 | 11.7
84 | COc1ccccc1OCCNC(=O)C1CCN(C(C)=O)CC1 | 25.1
85 | Cc1cc(=O)[nH]c(S/C=C/c2ccccc2)n1 | -0.872
86 | CN1CC(=O)N(CC(=O)Nc2ccc3c(c2)CCC3)C1=O | 7.65
87 | CCCCN1CC[C@H]2C=CC[C@@H](C(=O)NCc3ccc(OC)cc3)[C@H]2C1=O | 2.71
88 | CC(C)CN(C(=O)CSc1nnc2ccccn12)C1CCS(=O)(=O)C1 (stereo not shown) | 11.6
